# Experimental data from article PMC4336329 (PLoS ONE, 2015).
# About 14,000 (4.5%) of roughly 310,000 compounds showed an effect of 50% or more. The effect is printed as a negative number. Some of the results follow.
# Target: human ether-à-go-go-related gene (hERG) potassium channel (human, UniProt Q12809)
# Assay: primary screen, population patch clamp on CHO cells stably expressing hERG
# 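Note: peak tail current of the secondary pulse compared with the same well before compound.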
# Chain of human ether-à-go-go-related gene (hERG) potassium channel (Q12809 whole entry, looked up): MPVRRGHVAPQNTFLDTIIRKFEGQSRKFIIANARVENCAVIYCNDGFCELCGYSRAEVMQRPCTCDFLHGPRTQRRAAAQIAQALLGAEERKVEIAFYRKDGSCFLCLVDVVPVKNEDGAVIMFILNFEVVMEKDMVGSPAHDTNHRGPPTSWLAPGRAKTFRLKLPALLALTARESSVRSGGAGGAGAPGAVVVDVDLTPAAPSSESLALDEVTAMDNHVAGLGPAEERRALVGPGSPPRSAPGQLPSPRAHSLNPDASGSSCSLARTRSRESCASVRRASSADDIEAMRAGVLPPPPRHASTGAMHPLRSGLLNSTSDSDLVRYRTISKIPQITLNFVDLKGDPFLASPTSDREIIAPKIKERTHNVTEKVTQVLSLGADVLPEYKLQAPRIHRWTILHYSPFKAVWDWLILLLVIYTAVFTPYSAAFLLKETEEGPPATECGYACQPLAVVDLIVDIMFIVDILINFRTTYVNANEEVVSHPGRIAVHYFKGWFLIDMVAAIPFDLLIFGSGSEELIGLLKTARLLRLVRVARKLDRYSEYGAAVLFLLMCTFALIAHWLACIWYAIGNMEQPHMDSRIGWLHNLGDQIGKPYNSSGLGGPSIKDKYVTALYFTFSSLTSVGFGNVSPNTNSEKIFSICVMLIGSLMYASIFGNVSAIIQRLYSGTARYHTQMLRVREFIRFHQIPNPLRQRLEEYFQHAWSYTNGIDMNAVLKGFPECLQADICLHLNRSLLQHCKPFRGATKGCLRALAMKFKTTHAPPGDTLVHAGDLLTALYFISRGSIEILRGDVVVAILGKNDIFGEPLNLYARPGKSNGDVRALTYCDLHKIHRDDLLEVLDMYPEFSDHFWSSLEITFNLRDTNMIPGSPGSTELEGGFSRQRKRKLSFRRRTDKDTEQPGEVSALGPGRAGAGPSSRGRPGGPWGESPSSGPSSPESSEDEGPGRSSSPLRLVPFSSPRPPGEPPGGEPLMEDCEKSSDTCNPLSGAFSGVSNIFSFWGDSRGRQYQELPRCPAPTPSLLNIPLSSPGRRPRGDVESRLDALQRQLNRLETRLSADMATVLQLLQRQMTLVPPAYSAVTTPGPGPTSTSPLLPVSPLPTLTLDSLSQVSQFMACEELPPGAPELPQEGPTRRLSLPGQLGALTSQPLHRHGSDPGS
row,SMILES,"hERG current change (%, negative = inhibition) at 10uM"
1,CN(CCc1ccccn1)C(=O)CN(C)S(=O)(=O)c1ccc2c(c1)c(=O)n(C)c(=O)n2C,22.7%
2,CCOc1cc(N2CCOCC2)c(OCC)cc1NC(=O)c1ccccc1C,-2.01%
3,Cc1ccc(S(=O)(=O)N2CCc3c2cc([N+](=O)[O-])cc3[N+](=O)[O-])cc1,13.6%
4,Cc1ccc(O)c(C2=Nc3ccccc3N=C(c3ccc([N+](=O)[O-])cc3)C2)c1,14.4%
5,O=C(CSc1nnc2c(n1)[nH]c1ccccc12)Nc1nncs1,19.4%
6,COc1ccccc1-c1noc(CSc2nc(N)cc(=O)[nH]2)n1,13.4%
7,COc1ccc(N(CC(=O)Nc2ccccc2OC)S(=O)(=O)c2ccc(OC)c(OC)c2)cc1,-1.57%
8,C=CCN1CN(S(=O)(=O)c2cccc(Cl)c2)c2nc3ccccc3nc21,-1.97%
9,Cc1ccc(O)c(C(CC(=O)N2CCCC2)c2ccccc2)c1 (centres unmarked),-18.9%
10,O=C(COc1ncnc2sccc12)N1CCN(c2ccccc2)CC1.O=C(O)C(=O)O,-32.3%
11,Cc1ccc2c(c1)SC1=NC(c3ccccc3)(C(F)(F)F)NC(=O)N12 (centres unmarked),2.41%
12,COC(=O)C1=C(C)OC(N)=C(C#N)C1c1ccco1 (centres unmarked),18.6%
13,Cc1cc(C)c2cc(C#N)c(SCC(=O)NCC3CCCO3)nc2c1 (centres unmarked),-2.47%
14,COc1ccc2c(c1)cc1n2CCN=C1NCCO.Cl,-10.2%
15,COc1ccc(C(=O)OCCN2C(=O)c3ccccc3C2=O)cc1,-5.4%
16,COc1ccc(Cn2nnnc2C(c2ccc(N(C)C)cc2)N2CCC(C)CC2)cc1 (centres unmarked),-2.19%
17,CCCCCN(C(=O)CCC(=O)OCC(=O)N(C)c1ccccc1)c1c(N)n(CCCC)c(=O)[nH]c1=O,7.04%
18,O=C(NC(CO)Cc1ccccc1)c1ccccc1 (centres unmarked),-10.5%
19,COc1ccc(/C=C/C(=O)Nc2ccccc2C(F)(F)F)cc1,7.8%
20,Cc1cccc(C)c1OC(=O)CSc1nnc(-c2ccccc2O)o1,0.915%
21,O=Cc1ccc(O)c(O)c1,15.1%
22,CCCN1Cc2cccc(C(=O)NCc3cccs3)c2C1=O,-18.2%
23,O=C(CCCn1c(=O)c2ccccc2n(Cc2ccccc2)c1=O)NCc1ccco1,-7.47%

row,SMILES,"hERG current change (%, negative = inhibition) at 10uM"
1,Cc1ncc(CN2CCC(n3nccc3NC(=O)c3ccccc3)CC2)s1,-19%
2,O=C1CCCCN1CCC(=O)N1CCCC(Nc2ccc(F)c(F)c2)C1 (centres unmarked),3.89%
3,CCOc1cc2c(C)cc(=O)oc2cc1Cl,-10.7%
4,COc1ccc([N+](=O)[O-])cc1-c1nc2ccccc2nc1-c1ccccc1,6.31%
5,Cc1cc(=O)oc(C)c1C(=O)OCC(=O)c1ccc(Cl)cc1,-19.3%
6,COC(=O)c1cc2ccsc2n1CC(=O)N(C)c1ccccc1,-9.6%
7,Cc1ccc(NC(=O)CCC(=O)OCCCC(F)(F)C(F)(F)F)cc1,-7.94%
8,CC1=C(C(=O)Nc2cccc(C(=O)NC(C)C)c2)SCCO1,17.6%
9,O=C(CN1CCCC1)Nc1ccc(-c2nc3cc(NC(=O)CN4CCCC4)ccc3o2)cc1,10.9%
10,CCOC(=O)CNC(=O)CSc1nc2sc(C)c(C)c2c(=O)n1C,7.03%
11,COc1ccccc1OC(C)C(=O)Nc1ccc(S(=O)(=O)Nc2nccs2)cc1 (centres unmarked),-29.2%
12,CCn1c(SCC(=O)Nc2ncc(C(F)(F)F)cc2Cl)nnc1-c1cccc(C)c1,-69.9%
13,COc1ccc(OCc2cccc(C(=O)O)c2)cc1,13.1%
14,Cc1cc(C(=O)N/N=C/c2ccc(O)c([N+](=O)[O-])c2)n[nH]1,-7%
15,O=C(CCNC(=O)Cn1ccc2ccccc2c1=O)NCc1ccc(F)cc1Cl,10.7%
16,O=C(Cc1cccc2ccccc12)NN1C(=O)C2C(C1=O)C1C=CC2C12CC2 (centres unmarked),-16.9%
17,COc1ccc(/C=C2\C(=N)N3N=C(CC(=O)N4CCOCC4)SC3=NC2=O)cc1,13%
18,O=C(OCC(=O)C12CC3CC(CC(C3)C1)C2)c1cccnc1,-1.49%
19,CCc1ccc2c(CN3CCc4cc(OC)c(OC)cc4C3)cc(=O)oc2c1,-66%
20,COc1ccc(/C=N/OCC(=O)Nc2ccc3c(c2)OCO3)c(OC)c1,-11%
21,COc1cccc(CNc2ccc3c(c2)nc(C)n3C)c1OC,-9.08%
22,O=C(NCCn1cccn1)C1CCC(=O)N(CC2CCCCC2)C1 (centres unmarked),10.7%
23,Cc1ccc(CN(CC(=O)N/N=C/c2ccccc2[N+](=O)[O-])S(=O)(=O)c2ccc(C)cc2)cc1,-1.83%

row,SMILES,"hERG current change (%, negative = inhibition) at 10uM"
1,CC(C)CN(C(=O)C1CC1)c1c(N)n(Cc2ccccc2)c(=O)[nH]c1=O,21.2%
2,COc1ccccc1NC(=O)c1cc2ccccc2o1,25.9%
3,Cc1ccc(C(C)C)c(OCC(=O)NNC(=O)CC2OC(=O)c3ccccc32)c1 (centres unmarked),-22.7%
4,O=C(O)Cc1csc(Nc2cccc(Cl)c2)n1,3.98%
5,O=C(c1ccc(OC2CCN(CCc3ccccc3)CC2)cc1)N1CCCC(CO)C1 (centres unmarked),-12.4%
6,COc1ccc(NC(=O)C2CCCO2)cc1Cl (centres unmarked),4.52%
7,C1CCCCCC(NCCN2CCNCC2)CCCCC1,12.1%
8,CCCc1cc(-c2nc(N)ncc2-c2ccc3c(c2)OCCCO3)c(O)cc1OC,-2.67%
9,Cc1ccc(NC(=O)COC(=O)COc2cccc3c2OC(C)(C)C3)c(C)c1,19.8%
10,CCOC(=O)N/N=C(/c1ccccc1)C1CCCCC1,15.1%
11,COC(=O)Nc1nnc(COc2ccccc2)s1,26.4%
12,COc1cc(/C=C2/C(=N)N3N=C(C(C)C)SC3=NC2=O)ccc1OS(=O)(=O)c1ccccc1,6.72%
13,COc1ccc(OC)c(Nc2nc3ccc(C)cc3n3cnnc23)c1,-1.09%
14,Cn1nc(-c2ccc(N3CCOCC3)c(NS(=O)(=O)c3ccc(Cl)cc3)c2)c2ccccc2c1=O,-9.74%
15,C/C(=N\OCc1cccc(C(=O)O)c1)c1ccc(Cl)cc1,5.57%
16,O=C(Nc1ccccc1F)c1ccc(CNS(=O)(=O)c2cccc(C(F)(F)F)c2)cc1,-0.769%
17,CS(=O)(=O)N1CCC(Oc2ccccc2C(=O)N2CCNC(=O)C2)CC1,12.1%
18,CCOc1ccc(-c2nc(N)ncc2-c2ccc(OC)cc2)c(O)c1,9.52%
19,CC(=O)Nc1sc2c(c1C#N)CCCC2,13.2%
20,CCOC(=O)C1(Cc2ccc(OC)cc2)CCN(C(=O)c2cc(C)on2)CC1,-6.3%
21,Cc1cc2nc3c(=O)n(CCc4ccccc4)c(=O)[nH]c3nc2cc1N,18.5%
22,O=C(CCNS(=O)(=O)c1ccc(Br)cc1)NCC1CCCO1 (centres unmarked),13.1%
23,Cc1ccc(CNc2nc(-c3cccnc3)nc3ccccc23)cc1,8.72%

row,SMILES,"hERG current change (%, negative = inhibition) at 10uM"
1,O=C(CN1CCN(c2ncccn2)CC1)N1CCCC1.O=C(O)C(=O)O,4.95%
2,COc1cccc(-n2c(=S)[nH]c3ccccc3c2=O)c1,20.8%
3,c1cncc(-c2noc(-c3ccco3)n2)c1,-4.57%
4,O=C(c1cc2c(=O)n3ccccc3nc2s1)N1CCc2ccccc2C1,-21.5%
5,O=C(OC1CCCCC1=O)c1cccc(S(=O)(=O)N2CCOCC2)c1 (centres unmarked),9.82%
6,Cc1nc(NC(=O)C2CC2)sc1C(=O)N1CCCCC1,-4.2%
7,CCc1ccc(N(CC(=O)NC2CCCC2)S(=O)(=O)c2c(C)noc2C)cc1,-7.76%
8,O=c1cc(-c2ccccc2Cl)oc2cc(O)cc(O)c12,2.81%
9,CCOc1ccc(C(=O)NC(=S)Nc2cc(C)ccn2)cc1[N+](=O)[O-],15.5%
10,Cc1cc(C(=O)OC(C)C(=O)N2CCc3ccccc32)ccc1[N+](=O)[O-] (centres unmarked),-3.61%
11,CCN1C(=O)c2cccc3c(Cl)ccc1c23,-8.15%
12,CC(=O)c1cc(-c2ccccc2)n(CC(=O)NC(C)(C)C)c1C,-1.35%
13,Cn1nc(C(=O)Nc2nnc(C3CC3)s2)c2ccccc2c1=O,25%
14,COC(=O)CC1C(=O)NCCN1C(=S)NC(=O)CCc1ccccc1 (centres unmarked),6.79%
15,CN(O)/C=N/C(=S)Nc1ccc(Cl)cc1Cl,23.3%
16,O=C(O)c1cc(-c2ccccc2Cl)n[nH]1,4.91%
17,O=C(Cc1cccc2ccccc12)N/N=C/C=C/c1cccc([N+](=O)[O-])c1,4.55%
18,CCCCCNC(=O)Cc1ccc(S(=O)(=O)N2CCOCC2)s1,-5.94%
19,C=CCN(CC=C)C(=S)NCCc1ccc(OC)c(OC)c1,-3.41%
20,CCOC(=O)c1c(-c2ccccc2)oc2ccc(O)c(CN3CCN(C)CC3)c12,-23.5%
